Values joined by “and” are separate entries in the source; they are usually repeats but may differ in a detail not shown here. Equal entries are not always repeated. Where two headings read alike, the source gives them in different places.
Assays:
Assay type in all cases: biochemical, Aloe barbadensis
AbCGT V183P = target: T1, AbCGT V183P (Aloe vera, UniProt A0A7G9P699, V183P)
T1 sequence (A0A7G9P699 1-470 V183P): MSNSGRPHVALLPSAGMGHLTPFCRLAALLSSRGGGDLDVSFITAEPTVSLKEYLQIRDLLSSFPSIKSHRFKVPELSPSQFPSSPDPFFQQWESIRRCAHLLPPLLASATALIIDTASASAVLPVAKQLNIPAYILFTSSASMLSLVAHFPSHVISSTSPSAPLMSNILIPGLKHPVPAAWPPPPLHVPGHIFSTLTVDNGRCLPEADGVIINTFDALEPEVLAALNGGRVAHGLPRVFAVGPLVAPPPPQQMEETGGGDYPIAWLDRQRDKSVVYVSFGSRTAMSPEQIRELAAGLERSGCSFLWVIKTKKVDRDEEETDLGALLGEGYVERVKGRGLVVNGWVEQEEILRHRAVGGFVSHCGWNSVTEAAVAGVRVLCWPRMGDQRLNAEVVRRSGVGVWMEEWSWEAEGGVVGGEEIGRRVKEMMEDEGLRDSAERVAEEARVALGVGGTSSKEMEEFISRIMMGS
Protocol: (§1) The reaction mixture contained 0.5 mM sugar donors (1.0 mM for di-glycosylation), 0.25 mM aglycons, 50 mM Tris-HCl (pH 7.4), and 50‒100 μg of purified AbCGT in a final volume of 100 μL. Due to the instability of some acceptors in the buffer of pH 11.0, the reactions were performed under the physiological conditions (pH 7.4, 30 °C) to compare the catalytic activities of AbGT27 with different substrates under the same conditions. The reactions were performed at 30 °C for up to 12 h and terminated by the addition of 200 μL of ice-cold methanol. Subsequently, samples were centrifuged at 15,000 × g for 30 min to collect the supernatant, and aliquots were analyzed by HPLC-UV/ESIMS. HPLC analysis was performed on a Shiseido CAPCELL PAK C18 MG III column (250 mm × 4.6 mm I.D., 5 μm, Shiseido Co., Ltd., Japan) at a flow rate of 1 mL min^‒1. The mobile phase was a gradient elution of solvents A (0.1% formic acid aqueous solution) and B (methanol). The gradient programs were used for the analysis of the reactions (Supplementary Table 6). The conversion rates of the enzyme reactions were calculated from peak areas of glycosylated products and substrates as analyzed by HPLC. To facilitate inferential statistical analysis, three parallel assays were routinely performed; the means ± SD from triplicate analyses are reported here.
(§2) Site-saturation mutagenesis of AbCGT at residue 183 was performed by PCR using pET28a-AbCGT as a template and the corresponding degenerate primers, which are listed in Supplementary Table 5. PCR products were purified and transformed into Trans1-T1 (DE3) E. coli. The sequences of pET28a-AbCGT mutants were confirmed by sequencing, and transformed into Transetta (DE3) E. coli for heterologous expression following protein purification.

AbCGT V183A = conditions: pH 7.4, 30 °C, 12 h, Reaction-1 to -3
Protocol: as §1, §2

AbCGT V183F = conditions: pH 7.4, 30 °C, 12 h, Reaction-1 to -3
Protocol: as §1, §2

AbCGT V183G = conditions: pH 7.4, 30 °C, 12 h, Reaction-1 to -3
Protocol: as §1, §2

AbCGT V183H = conditions: pH 7.4, 30 °C, 12 h, Reaction-1 to -3
Protocol: as §1, §2

AbCGT V183I = conditions: pH 7.4, 30 °C, 12 h, Reaction-1 to -3
Protocol: as §1, §2

AbCGT V183K = conditions: pH 7.4, 30 °C, 12 h, Reaction-1 to -3
Protocol: as §1, §2

AbCGT V183S = conditions: pH 7.4, 30 °C, 12 h, Reaction-1 to -3
Protocol: as §1, §2

AbCGT V183T = conditions: pH 7.4, 30 °C, 12 h, Reaction-1 to -3
Protocol: as §1, §2

AbCGT V183W = conditions: pH 7.4, 30 °C, 12 h, Reaction-1 to -3
Protocol: as §1, §2

AbCGT V183Y = conditions: pH 7.4, 30 °C, 12 h, Reaction-1 to -3
Protocol: as §1, §2

[1] = substrate: O=C1C[C@@](O)(c2ccc(O)cc2)Oc2cc(O)cc(O)c21; test: Kinetic parameters of AbCGT variant V183P; conditions: other: V183P, UDP-Glc as donor; pH 7.4; 30.0 °C
Protocol: Assays were performed in a final volume of 100 μL 50 mM Tris-HCl (pH 7.4) at 30 °C, and contained purified recombinant AbCGT (1.5 μg) and saturating UDP-Glc (5 mM) while varying phloracetophene (11) and phloretin (17) concentrations (5–500 μM), respectively. The reactions terminated by the addition of 200 μL of ice-cold methanol. Subsequently, samples were centrifuged at 15,000 × g for 30 min to collect the supernatant, and aliquots were analyzed by HPLC as described above. All experiments were performed in triplicate. The value of Km was calculated with the method of Lineweaver–Burk plot.
as §2

[2] = V183P, pH 7.4, 30 °C, 12 h, Reaction-1 to -3

Molecule: CC(=O)c1c(O)cc(C)cc1O [Compound 7]
- V183P/yield of C-glycoside(%) (AbCGT V183P; reaction-1): 4.7%
- V183P/yield of O-glycoside(%) (AbCGT V183P; reaction-1): 1%
- V183P/yield of C-glycoside(%) (AbCGT V183P; reaction-2): 6%
- V183P/yield of O-glycoside(%) (AbCGT V183P; reaction-2): 0.8%
- V183P/yield of C-glycoside(%) (AbCGT V183P; reaction-3): 4.4%
- V183P/yield of O-glycoside(%) (AbCGT V183P; reaction-3): 1.3%

Molecule: COc1cc(O)c(C(C)=O)c(O)c1 [Compound 13]
- V183P/yield of C-glycoside(%) (AbCGT V183P; reaction-1): 10.8%
- V183P/yield of O-glycoside(%) (AbCGT V183P; reaction-1): 0%
- V183P/yield of C-glycoside(%) (AbCGT V183P; reaction-2): 11.3%
- V183P/yield of O-glycoside(%) (AbCGT V183P; reaction-2): 0%
- V183P/yield of C-glycoside(%) (AbCGT V183P; reaction-3): 10.8%
- V183P/yield of O-glycoside(%) (AbCGT V183P; reaction-3): 0%

Molecule: COc1cc(O)c(C(C)=O)c(OC)c1 [Compound 14]
- V183P/yield of C-glycoside(%) (AbCGT V183P; reaction-1): 0%
- V183P/yield of O-glycoside(%) (AbCGT V183P; reaction-1): 0%
- V183P/yield of C-glycoside(%) (AbCGT V183P; reaction-2): 0%
- V183P/yield of O-glycoside(%) (AbCGT V183P; reaction-2): 0%
- V183P/yield of C-glycoside(%) (AbCGT V183P; reaction-3): 0%
- V183P/yield of O-glycoside(%) (AbCGT V183P; reaction-3): 0%

Molecule: Oc1cc(O)cc(OCCCCCCc2ccccc2)c1 [Compound 22]
- V183P/yield of C-glycoside(%) (AbCGT V183P; reaction-1): 0%
- V183P/yield of O-glycoside(%) (AbCGT V183P; reaction-1): 0%
- V183P/yield of C-glycoside(%) (AbCGT V183P; reaction-2): 0%
- V183P/yield of O-glycoside(%) (AbCGT V183P; reaction-2): 0%
- V183P/yield of C-glycoside(%) (AbCGT V183P; reaction-3): 0%
- V183P/yield of O-glycoside(%) (AbCGT V183P; reaction-3): 0%

Molecule: O=C1CC(O)(c2ccc(O)cc2)Oc2cc(O)cc(O)c21 (centres unmarked) [Compound 23, 2-hydroxynaringenin]
- conversion rates of 2-hydroxynaringenin, C-glycosylation (AbCGT V183A): 84.8% and 86.1% and 84%
- conversion rates of 2-hydroxynaringenin, O-glycosylation (AbCGT V183A): 15.2% and 13.9% and 16%
- conversion rates of 2-hydroxynaringenin, C-glycosylation (AbCGT V183F): 86.9% and 84.7%
- conversion rates of 2-hydroxynaringenin, O-glycosylation (AbCGT V183F): 13.1% and 15.3%
- conversion rates of 2-hydroxynaringenin, C-glycosylation (AbCGT V183G): 95% and 95.3% and 94.4%
- conversion rates of 2-hydroxynaringenin, O-glycosylation (AbCGT V183G): 5% and 4.7% and 5.6%
- conversion rates of 2-hydroxynaringenin, C-glycosylation (AbCGT V183H): 91.6% and 90.2% and 88%
- conversion rates of 2-hydroxynaringenin, O-glycosylation (AbCGT V183H): 8.4% and 9.8% and 12%
- conversion rates of 2-hydroxynaringenin, C-glycosylation (AbCGT V183I): 84.1% and 81.8% and 80.1%
- conversion rates of 2-hydroxynaringenin, O-glycosylation (AbCGT V183I): 15.9% and 18.2% and 19.9%
- conversion rates of 2-hydroxynaringenin, C-glycosylation (AbCGT V183K): 96.4% and 95.9% and 95%
- conversion rates of 2-hydroxynaringenin, O-glycosylation (AbCGT V183K): 3.6% and 4.1% and 5%
- conversion rates of 2-hydroxynaringenin, C-glycosylation (AbCGT V183P; [2]): 99.7% and 99.5%
- conversion rates of 2-hydroxynaringenin, O-glycosylation (AbCGT V183P; [2]): 0.3% and 0.5%
- V183P/yield of C-glycoside(%) (AbCGT V183P; reaction-1): 99.6%
- V183P/yield of O-glycoside(%) (AbCGT V183P; reaction-1): 0.4%
- V183P/yield of C-glycoside(%) (AbCGT V183P; reaction-2): 99.5%
- V183P/yield of O-glycoside(%) (AbCGT V183P; reaction-2): 0.5%
- V183P/yield of C-glycoside(%) (AbCGT V183P; reaction-3): 99.3%
- V183P/yield of O-glycoside(%) (AbCGT V183P; reaction-3): 0.7%
- conversion rates of 2-hydroxynaringenin, C-glycosylation (AbCGT V183S): 89.4% and 91.2% and 86.4%
- conversion rates of 2-hydroxynaringenin, O-glycosylation (AbCGT V183S): 10.6% and 8.8% and 13.6%
- conversion rates of 2-hydroxynaringenin, C-glycosylation (AbCGT V183T): 86.9% and 88.8% and 84.9%
- conversion rates of 2-hydroxynaringenin, O-glycosylation (AbCGT V183T): 13.1% and 11.2% and 15.1%
- conversion rates of 2-hydroxynaringenin, C-glycosylation (AbCGT V183W): 85.6% and 83.9% and 85.1%
- conversion rates of 2-hydroxynaringenin, O-glycosylation (AbCGT V183W): 14.4% and 16.1% and 14.9%
- conversion rates of 2-hydroxynaringenin, C-glycosylation (AbCGT V183Y): 80.8% and 82% and 82.9%
- conversion rates of 2-hydroxynaringenin, O-glycosylation (AbCGT V183Y): 19.2% and 18% and 17.1%

B1: AbCGT V183P (Aloe vera; V183P) (protein)
chain: T1 sequence (A0A7G9P699 1-470 V183P)
- Km [1]: 316.4 ± 20.9 µM

From publication PMC7558026, “Exploring and applying the substrate promiscuity of a C-glycosyltransferase in the chemo-enzymatic synthesis of bioactive C-glycosides” (Nature Communications, 2020)
